Source: PubChem BioAssay AID1476 (National Center for Advancing Translational Sciences (NCATS), 2009)
Out of some 200,000 compounds screened, about 4,500 (2.2%) were called active. This list was built around the results that the source calls inconclusive (neither active nor inactive); the mix of calls is not that of the screen. The call rests on the fitted dose curve; in most records, active means well fitted inhibition curve with a large enough effect; inconclusive means small, poorly fitted or top-dose-only effect, or effect the other way; inactive means flat fitted curve, though single readings scatter. Potencies beside an inconclusive call are fits to weak or partial responses and may not hold up.

These compounds were tested against Cruzipain (Trypanosoma cruzi) (UniProt P25779) (assay: qHTS Assay for Promiscuous and Specific Inhibitors of Cruzain (without detergent)). Conditions: purified cruzain, Z-FR-AMC fluorescence, no detergent.
Sequence of UniProt P25779 (P25779 whole entry, looked up): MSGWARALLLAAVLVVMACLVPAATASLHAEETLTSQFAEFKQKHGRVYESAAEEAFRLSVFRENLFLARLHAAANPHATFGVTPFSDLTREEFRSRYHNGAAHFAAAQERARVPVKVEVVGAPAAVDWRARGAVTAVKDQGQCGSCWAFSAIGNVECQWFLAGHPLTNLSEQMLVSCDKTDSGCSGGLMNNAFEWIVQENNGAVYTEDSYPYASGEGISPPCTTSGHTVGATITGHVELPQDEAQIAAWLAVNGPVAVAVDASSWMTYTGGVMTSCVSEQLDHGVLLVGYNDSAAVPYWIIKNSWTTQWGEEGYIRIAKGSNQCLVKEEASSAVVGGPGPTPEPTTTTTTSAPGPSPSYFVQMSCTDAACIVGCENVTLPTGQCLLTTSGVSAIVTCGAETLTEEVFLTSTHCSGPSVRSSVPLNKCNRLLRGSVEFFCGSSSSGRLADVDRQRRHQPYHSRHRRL
Outline: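 Purified cruzain at 1.5 nM, pre-incubated 15 min with compound at room temperature in 100 mM sodium acetate pH 5.5, 5 mM DTT, 0.00005% Triton X-100. Reaction started with 2 uM Z-FR-AMC; AMC fluorescence increase over 60 s gives rate.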
Further: nearly all actives have a fitted effect of over 40% in size.
Potency means the concentration at half of the fitted maximal effect; tags describe the fitted curve by direction and shape.
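Wherever max response, negative = inhibition is given: plate controls were enzyme without inhibitor for no effect and buffer without enzyme for full effect.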

| SMILES | max response, negative = inhibition | Potency |
| --- | --- | --- |
| NC(=O)CSc1ncc2c(n1)-c1ccccc1N(Cc1ccc(F)cc1)S2(=O)=O | inactive: 1.52% | – |
| CC1=C(c2ccc(C)cc2)S(=O)(=O)N(Cc2ccc(C(=O)Nc3ccc(C)c(F)c3)cc2)C1=O | – | active: 20 µM |
| COc1cccc(-c2nc(N(C)C)c3ccccc3n2)c1 | inactive: -4.51% | – |
| CCOc1ccc(C(=O)Nc2ccc3nc(SCC(=O)N4CCc5ccccc54)sc3c2)cc1 | inactive: -1.67% | – |
| CCC1=C(C[C@H]2NCCc3cc(OC)c(OC)cc32)C[C@H]2c3ccccc3CCN2C1 | inactive: -6.2% | – |
| CCOc1ccc(CCNC(=O)c2cc3sc(Cl)cc3n2C)cc1OCC | – | inconclusive: 25.1 µM [activator, single point] |
| CCC(=O)Nc1cc2nn(-c3ccc(OC)cc3)nc2cc1C | – | inconclusive: 3.16 µM [activator, full curve] |
| Cc1noc(C)c1CSc1nc2sc(C)c(C)c2c(=O)n1-c1ccccc1 | inactive: -13.3% | – |
| Cc1c(N=C2NC(=O)/C(=C/c3cccc([N+](=O)[O-])c3)S2)c(=O)n(-c2ccccc2)n1C | inactive: 11.8% | – |
| Cc1ccc(-c2cc(C(=O)N/N=C\c3cnn(C)c3C)c3ccccc3n2)cc1C | – | inconclusive: 25.1 µM [activator, partial curve] |
| CCOC(=O)N1CCN(C(=O)CS(=O)(=O)c2cn(Cc3cccc(F)c3)c3ccccc23)CC1 | – | inconclusive: 39.8 µM [activator, single point] |
| CC(C)[C@H](NC(=O)c1ccccc1)C(=O)OCC(=O)Nc1ccc2c(c1)OCCO2 | – | inconclusive: 39.8 µM [inhibitor, single point] |
| COc1cc2c(cc1OC)C(COc1ccc3c(C)cc(=O)oc3c1)N(C(=O)c1ccccc1C)CC2 (stereo not drawn) | inactive: -7.1% | – |
| CN1C(=O)c2ccccc2Sc2ccc(NC(=O)N3CCN(c4ccccc4)CC3)cc21 | inactive: -4.99% | – |
| CCCCCCCCCCCCCCCC(=O)OC[C@H](COP(=O)([O-])OCC[N+](C)(C)C)OC(C)=O | – | inconclusive: 20 µM [activator, single point] |
| COc1ccc(-c2nc3ccccc3n3c(-c4ccccc4)c4c(=O)n(C)c(=O)n(C)c4c23)cc1OC | inactive: 0.562% | – |
| Cc1cc2cc(CNC(=O)c3cccc([N+](=O)[O-])c3)ccc2[nH]1 | – | inconclusive: 25.1 µM [inhibitor, single point] |
| N#CCCn1cc(/C=C(\C#N)c2nc3ccccc3s2)c(-c2ccc(F)cc2)n1 | – | inconclusive: 25.1 µM [activator, single point] |
| Cc1ccc(NC(=O)c2noc3c2CC(C(C)(C)C)CC3)cc1 (stereo not drawn) | – | active: 12.6 µM |
| COc1ccccc1N(C)S(=O)(=O)c1ccc(C(=O)Nc2ccc3nc(C)sc3c2)cc1 | – | inconclusive: 39.8 µM [activator, single point] |
| O=C(CSc1nc2cc(Cl)ccc2o1)N1CCOCC1 | – | inconclusive: 3.16 µM [inhibitor, partial curve] |
| Cc1nc(N2CCN(C(=O)c3ccco3)CC2)c2c3c(sc2n1)CCCC3 | – | inconclusive: 39.8 µM [activator, single point] |

| SMILES | max response, negative = inhibition | Potency |
| --- | --- | --- |
| Cc1c(C(=O)OCC(=O)c2c(N)n(CC(C)C)c(=O)n(C)c2=O)oc2ccccc12 | – | inconclusive: 20 µM [activator, single point] |
| Cc1cccc2cc(C#N)c(SCc3nnc(-c4ccccc4[N+](=O)[O-])o3)nc12 | – | inconclusive: 25.1 µM [inhibitor, single point] |
| CCOC(=O)C(CC)Sc1c(CC)cnc2c1c(=O)n(C)c(=O)n2C (stereo not drawn) | inactive: -15.4% | – |
| Cc1nc2ccccn2c1C(=O)N/N=C/c1cc(C)n(-c2ccc(Br)cc2)c1C | – | inconclusive: 39.8 µM [activator, single point] |
| O=C1Cc2ccccc2C(=O)N1Cc1ccccc1 | – | inconclusive: 39.8 µM [inhibitor, single point] |
| CCc1cccc(CC)c1NC(=O)C1SC(=Nc2ccccc2C)C(c2nc3ccccc3s2)=C1N (stereo not drawn) | – | active: 6.31 µM |
| Cc1cc(C)c2c(n1)sc1c(=O)n(-c3ccccc3C(F)(F)F)nnc12 | inactive: 8.86% | – |
| CCN(CC)S(=O)(=O)c1csc(C(=O)OCC(=O)c2ccccc2)c1 | inactive: -5.04% | – |
| CCSc1nc2c([nH]c3ccccc32)c(=O)n1-c1ccc(F)cc1 | inactive: 2.71% | – |
| CCc1ccc(CNC(=O)C2CCCN(S(=O)(=O)c3ccc4c(ccn4C)c3)C2)cc1 (stereo not drawn) | – | inconclusive: 31.6 µM [inhibitor, single point] |
| CCOc1ccc(Nc2oc(/C=C/c3cccc(OC)c3)nc2C#N)cc1 | – | inconclusive: 15.8 µM [inhibitor, single point] |
| Clc1cccc(-c2cc3nc4c(c(N5CCN(c6cnccn6)CC5)n3n2)CCCC4)c1 | – | inconclusive: 39.8 µM [inhibitor, single point] |
| COC(=O)COc1ccc(S(=O)(=O)N2CCN(c3ccccc3F)CC2)cc1 | – | inconclusive: 39.8 µM [activator, single point] |
| Cc1ccc(CNC(=O)C(=O)NCCC2=CCCCC2)cc1 | – | inconclusive: 39.8 µM [inhibitor, single point] |
| CCOc1ccc(S(=O)(=O)N2CCN(c3ccc(OC)cc3)CC2)c2cccnc12 | – | inconclusive: 31.6 µM [activator, single point] |
| Oc1nc(Nc2ccc(Cl)cc2Cl)sc1/C=C1\C=Nc2ccccc21 | – | active: 25.1 µM |
| COc1ccc2c(c1)Cc1sc(NC(=O)c3cccc(Br)c3)nc1-2 | – | inconclusive: 39.8 µM [inhibitor, single point] |
| O=c1ccc(S(=O)(=O)N2CCC(Cc3ccccc3)CC2)c[nH]1 | inactive: -13.9% | – |
| CCOc1nc(-c2ccccc2)ccc1-c1noc(COc2ccccc2)n1 | – | inconclusive: 39.8 µM [inhibitor, single point] |
| Cc1ccc(NC(=O)Cn2c(-c3cncs3)nc3ccccc32)c(Br)c1 | – | inconclusive: 20 µM [activator, partial curve] |
| COc1ccccc1C(=O)Nc1ccc(C(=O)OCc2cc(=O)n3nc(C)sc3n2)cc1 | inactive: 0.112% | – |
